Test results as given in PubChem BioAssay AID485313 (National Center for Advancing Translational Sciences (NCATS), 2010).
About 7,600 (2.4%) of roughly 320,000 compounds were called active. Inconclusive means that the source gave no clear call. Such entries were picked first, then a sample of the others. Calls come from the whole dose curve; as a rule, active = well fitted activation curve with a large enough effect; inconclusive = small, poorly fitted or top-dose-only effect; inactive = no such curve, though single readings can be large or run the other way. No potency is given beside an inconclusive call; the fits are too rough.

assay: qHTS Assay for NPC1 Promoter Activators; details: Huh7 NPC1 promoter luciferase reporter, 24 h; series mostly up to 9.22 µM; note: nearly all actives have a fitted effect of over 60% in size;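 for activation: reporter is driven by a mutant NPC1 promoter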
How it was run: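 NPC1 promoter–luciferase Huh7 cells; 24 h compound; luminescence.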
Potency is the fitted concentration of half-maximal effect; tags give direction and shape of the fitted curve.

| SMILES | Potency |
| --- | --- |
| CCOc1ccc(NC(=S)Nc2ccc(F)cc2)cc1 | inactive |
| COc1ccc(NC(=O)C2=Cc3ccccc3OC2)cc1 | active: 0.398 µM |
| Cc1ccc(C)n1-c1ccc(C(=O)Nc2ccccc2)cc1 | inactive |
| CCc1ccc(NC(=O)c2[nH]c(C)c(C(C)=O)c2C)cc1 | active: 1.58 µM |
| Oc1cccc(/C=C/c2ccc3cccc(O)c3n2)c1 | inconclusive [activator, single point] |
| O=C(Nc1cccc(Cl)c1)Nc1nccs1 | inconclusive [activator, single point] |
| c1ccc(-c2onc3cc4c(cc23)OCCO4)cc1 | inconclusive [activator, single point] |
| Cc1ccnc(N2C(=O)c3ccccc3C2O)c1 (stereo not given) | active: 1 µM |
| O=C(Nc1ccc(Cl)cc1)c1ccc2snnc2c1 | inconclusive [activator, single point] |
| O=C(N/N=C/c1cccnc1)c1cc(Br)ccc1O | active: 3.16 µM |
| Cc1cc(C(=O)N/N=C/c2ccccc2)c(C)o1 | inconclusive [activator, single point] |
| C/C(=N\Nc1cccc([N+](=O)[O-])c1)c1cc(F)ccc1O | inconclusive [activator, partial curve] |
| CCOC(=O)c1c(C)[nH]c(C=Nc2ccccc2)c1O | inconclusive [activator, partial curve] |
| Oc1ccc(N=C/C=C/c2ccc(Br)cc2)cc1-c1nc2ccccc2s1 | active: 3.16 µM |
| Cc1ccc(Nc2ncnc(-n3cccc3)n2)cc1Cl | inconclusive [activator, single point] |
| CC(C)Nc1ccc(Cl)cc1[N+](=O)[O-] | inactive |
| CCn1c(C)csc1=NC(=O)c1ccccc1O | active: 2.82 µM |
| CC(C)c1ccc(-c2nn[nH]n2)cc1 | inconclusive [activator, partial curve] |
| CC(C)=CC(=O)Nc1ccc(OCc2ccccc2)cc1 | inconclusive [activator, partial curve] |
| O=C(NC1CCCCC1)c1ccc2c(c1)OCCO2 | active: 1.41 µM |
| CC1=NN(C(N)=S)C(=O)C1N=Nc1cccc([N+](=O)[O-])c1 (stereo not given) | active: 3.55 µM |
| CCOC(=O)C1(Cc2cccc(Cl)c2)CCCN(C(=O)CCSC)C1 (stereo not given) | inconclusive [activator, single point] |
| Cc1cccc2c1ncc1c(=O)n(-c3ccccc3)[nH]c12 | active: 3.16 µM |
| COc1ccc(/C=N/NC(=O)c2ccn[nH]2)cc1CSc1ccccn1 | inconclusive [activator, single point] |
| COc1ccc(-c2noc(-c3cccnc3)n2)cc1OC | inconclusive [activator, partial curve] |

| SMILES | Potency |
| --- | --- |
| COc1ccc2nc(N(Cc3ccccc3)C(=O)CCNC(C)=O)sc2c1 | inconclusive [activator, partial curve] |
| COc1ccc(-c2cc3cc(OC)c(OC)cc3c(C)n2)cc1 | inconclusive [activator, single point] |
| CCCOc1ccc(CCCN=C(N)N)cc1Cl | inactive |
| COC(=O)c1ccc(NN=Nc2ccc(C)cc2)cc1 | active: 0.794 µM |
| Cc1cccc(-c2cc3c(N=O)c4ccccc4c-3n[nH]2)c1 | active: 0.708 µM |
| Cc1cccc(/C=C/c2nc3ccccc3c(=O)[nH]2)c1 | inconclusive [activator, single point] |
| O=c1c2ccccc2oc2ccc(Oc3ccccc3)cc12 | active: 2.82 µM |
| CCOc1ccc(NC(=O)c2ccco2)cc1 | active: 0.708 µM |
| COc1ccc(-c2cc(C(=O)Nc3cc(C)ccc3O)no2)cc1 | inconclusive [activator, single point] |
| O=C(COc1ccccc1Cl)Nc1ccccc1C(=O)N1CCCCC1 | inconclusive [activator, partial curve] |
| CN(C)S(=O)(=O)c1ccc(C(=O)NCCC(=O)N2CCCC2)cc1 | inconclusive [activator, single point] |
| CCN(CC(=O)Nc1ccc2c(c1)OCCO2)C(=O)/C=C/c1cccc(OC)c1OC | inconclusive [activator, partial curve] |
| NC(=Nc1ccccc1)NC(=O)c1nc(Cl)c(N)nc1N | inconclusive [activator, full curve] |
| CCCC(=O)Nc1ccc2nn(-c3ccc(OC)cc3)nc2c1 | inconclusive [activator, full curve] |
| COc1cc([N+](=O)[O-])ccc1NC(=S)NNC(=O)CCC(=O)Nc1ccccc1Cl | inconclusive [activator, partial curve] |
| O=C(Nc1cnc2ccccc2c1)N1CCOCC1 | inconclusive [activator, partial curve] |
| CCCCc1nc2cc(C(=O)N3CCCC3)ccc2o1 | inconclusive [activator, partial curve] |
| Cc1cc(-c2nnc(-c3cccc(C(F)(F)F)c3)o2)no1 | inconclusive [activator, partial curve] |
| COc1ccc(C(=O)Nn2c(SCC(=O)N3CCC(C)CC3)nc3ccccc3c2=O)cc1 | active: 0.398 µM |
| CN1C(C(=O)NCc2ccc(OC(F)(F)F)cc2)CC2Cn3c(nc4ccccc43)C21 (stereo not given) | inconclusive [activator, single point] |
| Cc1nc2ccc(NS(=O)(=O)c3ccccc3Cl)cc2s1 | inactive |
| CC(C)c1ccc(/C=N/NC(=O)CCNC(=O)c2ccccc2)cc1 | inconclusive [activator, single point] |
| COCCNC(=O)c1ccccc1-c1nc(-c2ccccc2OC)no1 | inconclusive [activator, single point] |
| O=C(Nc1ccc(F)cc1)NC1CCCCC1 | inconclusive [activator, single point] |
| COc1cc([N+](=O)[O-])ccc1-c1ccc(/C=N/NC(=O)c2ccccc2O)o1 | inactive |
